Measurements reported in patent US20200138970A1 (Bayer, published 2020).

Legend:
[1] = target: T1, human B7H3 on cancer cell lines (human, UniProt Q5ZPR3 29-534); experiment: flow cytometry on A498 cells, dose response from 10 ug/mL (1:5 dilution), FITC secondary antibody
T1 construct: whole, on cells; Endogenous antigen on tumour cells; also called B7H3-positive cells (A498, MCF-7, Caki-2, U251, U87 MG, 786-O, NCI-H292)
T1 sequence (looked up): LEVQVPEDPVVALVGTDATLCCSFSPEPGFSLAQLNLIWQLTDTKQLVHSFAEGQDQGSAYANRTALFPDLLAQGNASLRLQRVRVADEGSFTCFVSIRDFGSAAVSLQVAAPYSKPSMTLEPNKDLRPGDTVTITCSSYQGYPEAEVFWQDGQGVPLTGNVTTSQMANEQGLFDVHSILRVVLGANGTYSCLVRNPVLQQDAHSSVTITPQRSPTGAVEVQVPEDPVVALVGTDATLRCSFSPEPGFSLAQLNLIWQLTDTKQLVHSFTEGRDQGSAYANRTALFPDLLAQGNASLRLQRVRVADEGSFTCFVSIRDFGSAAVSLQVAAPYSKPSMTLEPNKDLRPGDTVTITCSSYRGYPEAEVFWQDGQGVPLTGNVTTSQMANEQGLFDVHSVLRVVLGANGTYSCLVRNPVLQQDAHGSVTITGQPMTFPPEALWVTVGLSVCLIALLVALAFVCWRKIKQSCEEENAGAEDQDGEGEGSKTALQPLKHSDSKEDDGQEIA
Description: A dose response curve (1:5 dilution) was generated. Following incubation, 200 μL of ice-cold FACS buffer were pipetted in and the cell suspension was centrifuged at 4° C., 400 g for 4 min. The cell pellet was washed with 300 μL of ice-cold FACS buffer prior to resuspending the pellet obtained in 100 μL of FACS buffer and again incubating for 30 min on ice with secondary antibody (monoclonal anti-kappa light chains FITC antibody, Sigma, No. SAB4700605) in a 1:10 dilution. Subsequently, the cells were washed with ice-cold FACS buffer and adjusted to a cell concentration of 0.5×10⁶ cells/mL before carrying out the flow cytometry using a Guava flow cytometer (Millipore). Propidium iodide (final concentration 1 μg/mL) was used for the live staining. With the aid of the background-corrected geometric mean fluorescence values, the IC50 value of the antibody to be investigated was determined.

[2] = target: T2, human B7H2 (RnDSystems, 8206-B7) (human, UniProt O75144 19-258, limits assumed); experiment: ELISA, IgG captured on anti-human IgG Fc, antigen 37 ng/ml, anti-His HRP detection
T2 construct: Bought protein; His tag implied by anti-His detection
T2 sequence (looked up): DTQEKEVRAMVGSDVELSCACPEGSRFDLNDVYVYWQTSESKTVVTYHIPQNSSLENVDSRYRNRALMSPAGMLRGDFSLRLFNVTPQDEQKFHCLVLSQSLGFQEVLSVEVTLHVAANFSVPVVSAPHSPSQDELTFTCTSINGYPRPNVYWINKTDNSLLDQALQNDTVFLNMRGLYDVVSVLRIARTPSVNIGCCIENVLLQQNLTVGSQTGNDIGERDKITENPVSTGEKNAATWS
Description: (§1) Binding of the antibodies to human B7H3 and to human B7H2 and B7H4 was characterized using ELISAs. […] After washing once with PSB, 0.05% Tween, the plate was blocked with 100% Smart Block (Candor) for one hour at 37° C. The antibody to be tested was then attached to the plate (2 μg/ml IgG in PBS, 0.05% Tween, 10% Smart Block; 1 hour, room temperature). […] After washing three times, the plate was incubated with Amplex Red for 30 minutes and then read.

[3] = target: T3, TPP-3760, B7H3 long, human (R&D Systems 2318-B3/CF) (human, UniProt Q5ZPR3 27-461); experiment: as above
T3 construct: Bought protein; also called B7H3 (RnDSystems, 2318-B3-050/CF); human B7H3
T3 sequence: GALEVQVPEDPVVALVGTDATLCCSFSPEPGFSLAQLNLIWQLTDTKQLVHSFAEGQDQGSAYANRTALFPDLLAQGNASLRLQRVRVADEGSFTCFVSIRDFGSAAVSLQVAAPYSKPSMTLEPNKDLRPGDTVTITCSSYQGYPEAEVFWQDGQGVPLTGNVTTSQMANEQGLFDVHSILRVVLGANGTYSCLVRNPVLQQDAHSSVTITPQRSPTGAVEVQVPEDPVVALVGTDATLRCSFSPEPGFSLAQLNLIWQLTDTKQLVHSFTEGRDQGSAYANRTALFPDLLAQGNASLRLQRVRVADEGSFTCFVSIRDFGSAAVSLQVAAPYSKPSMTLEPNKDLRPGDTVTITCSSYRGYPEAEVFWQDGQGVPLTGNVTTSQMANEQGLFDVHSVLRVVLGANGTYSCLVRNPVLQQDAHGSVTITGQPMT
Description: as §1

[4] = target: T4, human B7H4 (RnDSystems, 6576-B7) (human, UniProt Q7Z7D3 29-258, limits assumed); experiment: as above
T4 construct: Bought protein; His tag implied by anti-His detection
T4 sequence (looked up): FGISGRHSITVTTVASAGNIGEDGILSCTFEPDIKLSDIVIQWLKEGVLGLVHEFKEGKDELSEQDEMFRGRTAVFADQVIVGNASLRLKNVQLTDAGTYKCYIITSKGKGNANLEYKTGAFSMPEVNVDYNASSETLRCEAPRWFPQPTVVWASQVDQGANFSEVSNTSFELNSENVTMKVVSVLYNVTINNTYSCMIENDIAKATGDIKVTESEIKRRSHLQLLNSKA
Description: as §1

B1: TPP-6497 (antibody, human IgG1, lambda)
heavy: EVQLLESGGGLVQPGGSLRLSCAASGFTFRSYAMSWVRQAPGKGLEWVSSVSGSGGSALYADSVKGRFTISRDNSKNTLYLQMNSLRAEDTAVYYCTRLTGTSFDYWGQGTLVTVSS[left out - human IgG1 constant region]
light: QSVLTQPPSASGTPGQRVTISCSGSSSNIGSNPVNWYQQLPGTAPKLLIYGNSNRPSGVPDRFSGSKSGTSASLAISGLRSEDEADYYCQSFDSSLKKVFGGGTKLTVLGQPKAAPSVTLFPPSSEELQANKATLVCLISDFYPGAVTVAWKADSSPVKAGVETTTPSKQSNNKYAASSYLSLTPEQWKSHRSYSCQVTHEGSTVEKTVAPTECS
EC50 [1]: 310 pM
Quotient signal (B7)/signal (buffer) [2]: < 1.5
Quotient signal (B7)/signal (buffer) [3]: 111
Quotient signal (B7)/signal (buffer) [4]: < 1.5
